{"source": "ChEMBL document CHEMBL5724801", "about": "“EUbOPEN Chemogenomics Library - Multiplex” (2024)", "assay_type_in_all_cases": "toxicity, cell-based", "key": {"Fibroblast": {"system": "Fibroblast", "assay": "Multiplex assay against human fibroblast", "outline": "(§1)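 Per cents of healthy-nucleus cells form the tubulin, mitochondrial-mass and membrane-permeability phenotype values. Live cells were stained at seeding with Hoechst33342, BioTracker Green Microtubule Cytoskeleton Dye, MitoTracker Red and Annexin V Alexa Fluor 680. After compound addition they were imaged on a CQ1 microscope at 37°C and 5% CO2, and CellPathfinder machine-learning gating split them into Hoechst high-intensity objects or normal cells, normal cells into healthy, pyknosed or fragmented nuclei, and pyknosed cells into mitotic or apoptotic.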"}, "HEK-293T": {"system": "HEK-293T", "assay": "Multiplex assay against HEK293T", "conditions": "human", "outline": "as §1"}, "U2OS": {"system": "U2OS", "assay": "Multiplex assay against U2OS", "conditions": "human, 48 h, 1 µM, compound concentration 1 uM", "outline": "as §1"}, "[1]": {"conditions": "12 h, 1 µM, compound concentration 1 uM"}, "[2]": {"conditions": "48 h, 10 µM, compound concentration 10 uM"}, "[3]": {"conditions": "12 h, 10 µM, compound concentration 10 uM"}, "[4]": {"conditions": "48 h, 1 µM, compound concentration 1 uM"}}, "note": "Certain results were filed several times, with different values. This list holds those alone. An entry can have further records. Values that stand side by side are repeats (runs, samples, wells, individuals or studies)."}
{"smiles": "COc1cc(/C=C(\\C#N)C(=O)Nc2nnc(C(F)(F)F)s2)ccc1OCc1ccc(C(F)(F)F)cc1C(F)(F)F", "values": [{"measurement": "Population Apoptotic (%)", "setting": "Fibroblast; [1]", "result": "2.5% and 35%"}, {"measurement": "Population Fragmented Nuclei (%)", "setting": "Fibroblast; [1]", "result": "21.43% and 5.94%"}, {"measurement": "Population Apoptotic (%)", "setting": "Fibroblast; [2]", "result": "0% and 50%"}, {"measurement": "Population Tubulin-Different-Phenotype (%)", "setting": "Fibroblast; [2]", "result": "4.74% and 18.27%"}, {"measurement": "Population Healthy Nuclei (%)", "setting": "HEK-293T; [1]", "result": "53.56% and 12.08%"}, {"measurement": "Population Tubulin-Different-Phenotype (%)", "setting": "HEK-293T; [1]", "result": "6.96% and 38.89%"}, {"measurement": "Population Healthy Nuclei (%)", "setting": "HEK-293T; [3]", "result": "56.57% and 16.31%"}, {"measurement": "Population Tubulin-Different-Phenotype (%)", "setting": "HEK-293T; [3]", "result": "5.95% and 26.09%"}, {"measurement": "Population Mitochondria Different-Phenotype (%)", "setting": "HEK-293T; 24 h, 10 µM, compound concentration 10 uM", "result": "15.79% and 3.8%"}, {"measurement": "Population Pyknosed Nuclei (%)", "setting": "HEK-293T; [4]", "result": "12.42% and 40.72%"}, {"measurement": "Population Tubulin-Different-Phenotype (%)", "setting": "HEK-293T; [4]", "result": "2.04% and 51.85%"}, {"measurement": "Total Cell Count", "setting": "HEK-293T; [4]", "result": "1088 and 197"}, {"measurement": "Population Apoptotic (%)", "setting": "HEK-293T; [2]", "result": "11.21% and 36.73%"}, {"measurement": "Population Tubulin-Different-Phenotype (%)", "setting": "HEK-293T; [2]", "result": "0.8% and 18.55%"}, {"measurement": "Total Cell Count", "setting": "HEK-293T; [2]", "result": "1266 and 284"}, {"measurement": "Total Cell Count", "setting": "U2OS", "result": "1038 and 316"}]}
